Assay results reported in paper PMC6919601, “Identification of Plasmodium dipeptidyl aminopeptidase allosteric inhibitors by high throughput screening” (PLoS ONE, 2019).
Screen size: about 110,000 compounds; about 230 (0.21%) showed an effect of 50% or more. This is one part of the list.

The compounds below were run against DPAP1 (Plasmodium falciparum, UniProt Q8IIJ9) (assay: primary screen, percent inhibition; read by cleavage of a fluorogenic dipeptide substrate; higher = more effect of the substance).
DPAP1, sequence (Q8IIJ9 whole entry, looked up): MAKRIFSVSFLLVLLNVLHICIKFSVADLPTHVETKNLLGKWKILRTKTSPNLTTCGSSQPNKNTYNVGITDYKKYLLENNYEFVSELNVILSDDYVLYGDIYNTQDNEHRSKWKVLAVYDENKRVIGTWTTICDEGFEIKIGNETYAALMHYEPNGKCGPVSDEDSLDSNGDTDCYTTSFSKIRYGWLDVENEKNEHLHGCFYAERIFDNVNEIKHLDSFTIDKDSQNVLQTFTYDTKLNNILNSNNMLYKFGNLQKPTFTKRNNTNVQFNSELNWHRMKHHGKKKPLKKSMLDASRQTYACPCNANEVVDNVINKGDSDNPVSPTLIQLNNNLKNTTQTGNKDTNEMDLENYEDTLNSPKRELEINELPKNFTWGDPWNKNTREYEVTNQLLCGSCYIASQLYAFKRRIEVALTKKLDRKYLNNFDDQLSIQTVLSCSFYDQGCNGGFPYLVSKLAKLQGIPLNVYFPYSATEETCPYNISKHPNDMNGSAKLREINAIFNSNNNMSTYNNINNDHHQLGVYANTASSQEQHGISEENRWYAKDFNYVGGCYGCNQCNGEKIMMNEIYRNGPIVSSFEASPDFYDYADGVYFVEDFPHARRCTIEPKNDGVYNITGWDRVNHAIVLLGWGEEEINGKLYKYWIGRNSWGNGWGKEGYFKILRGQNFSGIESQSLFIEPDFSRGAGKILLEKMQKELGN
Parameters: species or system P. falciparum D10 trophozoite lysates; single well
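Also: 30 min substrate incubation versus DMSO and 10 µM JCP410 controls.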

Row | SMILES | % Inhibition @ 10 uM [%]
1 | CC(C)C(NC(=O)CN(c1cccc(F)c1)S(C)(=O)=O)C(C)C | 1.15
2 | Cc1ccc2c(c1)cc1c(=O)n(CC(=O)O)nc(C)n12 | 1.72
3 | CCOc1ccc(C(=O)Nc2cc(OC)ccc2OC)cc1 | 2.54
4 | CCCN1CCN(C(=O)C2CCN(C(=O)c3ccc(-n4ccc5ccccc54)s3)CC2)CC1 | -3.95
5 | O=C(NC1CCCCC1)c1ccc(CNc2nc(S)nc3ccccc23)cc1 | -0.628
6 | CN1CCN(C(=O)CN(c2cc(C(F)(F)F)ccc2Cl)S(C)(=O)=O)CC1 | -1.63
7 | O=C(NC1CCCC1)N1CC=C(c2c[nH]c3ccccc23)CC1 | 1.98
8 | CC1CCCC(NC(=O)Cn2ncc3c(Cl)cccc32)C1C (stereo not shown) | 5.39
9 | O=C1C2C(c3ccccc3)OC3(C(=O)c4ccccc4C3=O)C2C(=O)N1Cc1ccc(Cl)cc1 (stereo not shown) | -3.37
10 | CCn1c(Oc2ccccc2OC)nc2c1c(=O)n(C)c(=O)n2C | -1.96
11 | Cc1ccc(-c2nc(CS(=O)CC(=O)NCc3cccnc3)c(C)o2)cc1 (stereo not shown) | 2.37
12 | COc1ccccc1C(=O)NCCn1cc(SCC(=O)NCc2ccco2)c2ccccc21 | 6.64
13 | Cc1nc2nc(NC(=O)c3ccco3)nn2c(O)c1C | 2.05
14 | COc1ccc(C2C=C(c3ccc(C)cc3)Nc3nnnn32)cc1OC (stereo not shown) | 1.73
15 | CCOCCn1c(CN2CCN(Cc3ccccc3)CC2)nc2c1c(=O)[nH]c(=O)n2C | -2.92
16 | CCOC(=O)c1sc(/N=C/c2c(C)nn(-c3ccc(C)cc3)c2O)c(C#N)c1C | -1.68
17 | COc1ccc(S(=O)(=O)N2CCN(c3ccccc3)CC2)cc1 | -4.3
18 | Cc1nc2ccccc2c(C(=O)O)c1-c1ccccc1 | 6.49
19 | CCOC(=O)C1=C(C)N=c2s/c(=C/c3cnn(C)c3C)c(=O)n2C1c1ccc(Cl)cc1 (stereo not shown) | 5.38
20 | O=C(O)c1ccc(Br)c(N2C(=O)C3CC=CCC3C2=O)c1 (stereo not shown) | -0.25
21 | COCCCNC(=O)c1cc2c(=O)n3ccccc3nc2n(CCc2ccccc2)c1=N | 3.6
22 | COCCN1C(=O)/C(=C/c2ccc(C)s2)S/C1=N\c1ccccc1 | -2.25
23 | CCSc1nc(SCC)c2c3c(sc2n1)CN(C)CC3 | 9.01
24 | COC(F)(C(=O)Nc1cccc(C(=O)Nc2cccc(Cl)c2)c1)C(F)(F)F (stereo not shown) | -3.41
25 | Cc1ccc(S(=O)(=O)N(CC(=O)Nc2cccnc2)c2ccccc2)cc1 | -2.44

Row | SMILES | % Inhibition @ 10 uM [%]
26 | CN1C(=O)C(O)(CC(=O)c2ccc(Cl)c(Cl)c2)c2ccccc21 (stereo not shown) | -1.02
27 | CCO/N=C1/CC(c2ccccc2)Cc2onc(C)c21 (stereo not shown) | 3.96
28 | CCCNC(=O)c1oc2ccc3c(c2c1C)C=CC1(CCCC1)O3 | 9.74
29 | COc1ccc(CNC(=O)c2cc(S(=O)(=O)N3CCOCC3)cn2C)cc1 | -3.1
30 | O=C(c1cc(Cl)ccc1Cl)N1CCN(Cc2ccccc2)CC1 | 9.82
31 | N#CC1=C(N)Oc2cc(N)ccc2C1c1ccc(Cl)c(Cl)c1 (stereo not shown) | 4.66
32 | COc1ccc(-c2cc(-c3ccc(OC)cc3)nc(Nc3ccccc3C(=O)O)n2)cc1 | -0.736
33 | Cc1ccc(-c2nn(CC(=O)NCc3ccco3)c(=O)c3ccccc23)cc1 | -8.86
34 | COc1cc(C(=O)c2ccccc2)c(OC)cc1C(=O)NC1CC(C)(C)NC(C)(C)C1 | 1.76
35 | COc1ccc2c(CNCc3ccc4c(c3)OCO4)c(C(=O)O)n(Cc3ccc(F)cc3Cl)c2c1 | 6.45
36 | CCOC1CC(c2ccccc2)=NN1c1ccc([N+](=O)[O-])cc1 (stereo not shown) | -4.24
37 | COC(=O)CCC(=O)Nc1ccc(C)cc1 | 0.00178
38 | CCc1ccc(-c2cc(C(=O)O)c3ccccc3n2)cc1 | 0.177
39 | O=C(NCc1ccncc1)C(Sc1ccccc1)c1ccccc1 (stereo not shown) | -3.75
40 | Cc1c(CN2CCCCC2C)c(=O)n(-c2ccccc2)n1C (stereo not shown) | -0.664
41 | COc1cc(OC)c(OC)cc1/C=C1\SC(c2ccc(C)cc2)=NC1=O | -6.59
42 | Cc1ccccc1C(=O)NC1CCN(Cc2ccccc2)CC1 | -0.833
43 | COc1ccc(NC(=O)CSc2ccc(C)cc2)cc1 | 2.37
44 | Cc1oc(-c2cccc(Cl)c2)nc1CN1CCCC(C(=O)NCCCN2CCOCC2)C1 (stereo not shown) | -1.05
45 | O=C(O)c1nccnc1C(=O)NCc1ccco1 | -4.98
46 | CCCCN1C(=O)c2cccc3c(S(=O)(=O)NC4(C(=O)O)CCCCC4)ccc1c23 | 2.49
47 | N#C/C(=C\c1c(Oc2ccccc2Cl)nc2ccccn2c1=O)C(=O)N1CCOCC1 | -5.11
48 | N#Cc1c(N)nc(SCc2ccccc2)c(C#N)c1-c1ccco1 | 2.55
49 | CC(C)C[C@H](NC(=O)OC1CCCc2ccccc21)C(=O)NCC#N (stereo partly shown) | -3.04
